{"source": "the supplement of paper PMC8728848", "binders": {"B1": {"name": "rAAL-2 (Agrocybe aegerita) (protein)", "chain": "MTSNVITQDLPIPVASRGFADIVGFGLDGVVIGRNAVNLQPFLAVKNFAQNAGGWLTTKHVRLIADTTGTGKGDIVGFGNAGVYVSVNNGKNTFADPPKMVIANFGYDAGGWRVEKHLRYLADIRKIGRADIIGFGEKGVLVSRNNGGLNFGPATLVLKDFGYDAGGWRLDRHLRFLADVTGNGHLDIVGFGDKHVFISRNNGDGTFAPAKSVIDNFCIDAGGWKIGDHPRFVADLTGDGTADIIGCGKAGCWVALNNGGGVFGQVKLVINDFGTDKGWQAAKHPRFIADLTGNGRGDVVGFGNAGVYVALNNGDGTFQSAKLVLKDFGVQQGWTVSKHRRFVVDLTGDGCADIIGFGEKETLVSYNDGKGNFGPVKALTNDFSFSGGKWAPETTVCWMANLDSSRH"}}, "experiment_in_all_cases": "glycan array binding signal (z-score within array); higher = stronger binding", "conditions_in_all_cases": "glycan notation: IUPAC condensed, linker removed", "key": {"[1]": {"molecular_target": "Fuc(a1-2)Gal(b1-4)GlcNAc(b1-6)GalNAc", "summary_of_the_method": "(§1)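 Glycan array data came from 3228 arrays in the Consortium for Functional Glycomics database, and only arrays with an available protein sequence were kept. Glycan names were put into IUPAC-condensed notation, and columns mapping to the same glycan were averaged. The binding signal is a within-array Z-score, averaged across arrays of one protein sequence run at different concentrations or buffers and across linkers. A negative Z-score can be read as non-binding.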"}, "[2]": {"molecular_target": "Fuc(a1-2)Gal(b1-4)GlcNAc6S", "summary_of_the_method": "as §1"}, "[3]": {"molecular_target": "Fuc(a1-2)Gal(b1-4)[Fuc(a1-3)]GlcNAc", "summary_of_the_method": "as §1"}, "[4]": {"molecular_target": "Fuc(a1-2)Gal(b1-4)[Fuc(a1-3)]GlcNAc(b1-2)Man(a1-3)[Fuc(a1-2)Gal(b1-4)[Fuc(a1-3)]GlcNAc(b1-2)Man(a1-6)]Man(b1-4)GlcNAc(b1-4)GlcNAc", "summary_of_the_method": "as §1"}, "[5]": {"molecular_target": "Fuc(a1-2)Gal(b1-4)[Fuc(a1-3)]GlcNAc(b1-2)Man(a1-3)[Fuc(a1-2)Gal(b1-4)[Fuc(a1-3)]GlcNAc(b1-2)Man(a1-6)]Man(b1-4)GlcNAc(b1-4)[Fuc(a1-6)]GlcNAc", "summary_of_the_method": "as §1"}, "[6]": {"molecular_target": "Fuc(a1-2)Gal(b1-4)[Fuc(a1-3)]GlcNAc(b1-2)[Fuc(a1-2)Gal(b1-4)[Fuc(a1-3)]GlcNAc(b1-4)]Man(a1-3)[Fuc(a1-2)Gal(b1-4)[Fuc(a1-3)]GlcNAc(b1-2)Man(a1-6)]Man(b1-4)GlcNAc(b1-4)GlcNAc", "summary_of_the_method": "as §1"}, "[7]": {"molecular_target": "Fuc(a1-2)Gal(b1-4)[Fuc(a1-3)]GlcNAc(b1-3)Gal(b1-4)[Fuc(a1-3)]GlcNAc", "summary_of_the_method": "as §1"}, "[8]": {"molecular_target": "Fuc(a1-2)Gal(b1-4)[Fuc(a1-3)]GlcNAc(b1-3)Gal(b1-4)[Fuc(a1-3)]GlcNAc(b1-3)Gal(b1-4)[Fuc(a1-3)]GlcNAc", "summary_of_the_method": "as §1"}, "[9]": {"molecular_target": "Fuc(a1-2)Gal(b1-4)[Fuc(a1-3)]GlcNAc(b1-3)GalNAc", "summary_of_the_method": "as §1"}, "[10]": {"molecular_target": "Fuc(a1-2)Gal(b1-4)[Fuc(a1-3)]GlcNAc(b1-3)[Neu5Ac(a2-6)Gal(b1-4)GlcNAc(b1-6)]Gal(b1-4)Glc", "summary_of_the_method": "as §1"}, "[11]": {"molecular_target": "Fuc(a1-2)Gal3S(b1-4)GlcNAc", "summary_of_the_method": "as §1"}, "[12]": {"molecular_target": "Fuc(a1-2)Gal6S(b1-3)GlcNAc", "summary_of_the_method": "as §1"}, "[13]": {"molecular_target": "Fuc(a1-2)Gal6S(b1-3)GlcNAc6S", "summary_of_the_method": "as §1"}, "Fuc(a1-2)Gal6S(b1-4)Glc": {"molecular_target": "Fuc(a1-2)Gal6S(b1-4)Glc", "summary_of_the_method": "as §1"}, "[14]": {"molecular_target": "Fuc(a1-2)Gal6S(b1-4)Glc6S", "summary_of_the_method": "as §1"}, "[15]": {"molecular_target": "Fuc(a1-2)Gal6S(b1-4)GlcNAc", "summary_of_the_method": "as §1"}, "Fuc(a1-2)[Gal(a1-3)]Gal": {"molecular_target": "Fuc(a1-2)[Gal(a1-3)]Gal", "summary_of_the_method": "as §1"}, "[16]": {"molecular_target": "Fuc(a1-2)[Gal(a1-3)]Gal(b1-3)GalNAc", "summary_of_the_method": "as §1"}, "[17]": {"molecular_target": "Fuc(a1-2)[Gal(a1-3)]Gal(b1-3)GalNAc(b1-3)Gal(a1-4)Gal(b1-4)Glc", "summary_of_the_method": "as §1"}, "[18]": {"molecular_target": "Fuc(a1-2)[Gal(a1-3)]Gal(b1-3)GlcNAc", "summary_of_the_method": "as §1"}, "[19]": {"molecular_target": "Fuc(a1-2)[Gal(a1-3)]Gal(b1-3)GlcNAc(b1-2)Man(a1-3)[Fuc(a1-2)[Gal(a1-3)]Gal(b1-3)GlcNAc(b1-2)Man(a1-6)]Man(b1-4)GlcNAc(b1-4)GlcNAc", "summary_of_the_method": "as §1"}, "[20]": {"molecular_target": "Fuc(a1-2)[Gal(a1-3)]Gal(b1-3)GlcNAc(b1-2)Man(a1-3)[Fuc(a1-2)[Gal(a1-3)]Gal(b1-3)GlcNAc(b1-2)Man(a1-6)]Man(b1-4)GlcNAc(b1-4)[Fuc(a1-6)]GlcNAc", "summary_of_the_method": "as §1"}, "[21]": {"molecular_target": "Fuc(a1-2)[Gal(a1-3)]Gal(b1-3)GlcNAc(b1-3)GalNAc", "summary_of_the_method": "as §1"}, "[22]": {"molecular_target": "Fuc(a1-2)[Gal(a1-3)]Gal(b1-3)GlcNAc(b1-6)GalNAc", "summary_of_the_method": "as §1"}, "[23]": {"molecular_target": "Fuc(a1-2)[Gal(a1-3)]Gal(b1-4)Glc", "summary_of_the_method": "as §1"}, "[24]": {"molecular_target": "Fuc(a1-2)[Gal(a1-3)]Gal(b1-4)GlcNAc", "summary_of_the_method": "as §1"}, "[25]": {"molecular_target": "Fuc(a1-2)[Gal(a1-3)]Gal(b1-4)GlcNAc(b1-2)Man", "summary_of_the_method": "as §1"}, "[26]": {"molecular_target": "Fuc(a1-2)[Gal(a1-3)]Gal(b1-4)GlcNAc(b1-2)Man(a1-3)[Fuc(a1-2)[Gal(a1-3)]Gal(b1-4)GlcNAc(b1-2)Man(a1-6)]Man(b1-4)GlcNAc(b1-4)GlcNAc", "summary_of_the_method": "as §1"}, "[27]": {"molecular_target": "Fuc(a1-2)[Gal(a1-3)]Gal(b1-4)GlcNAc(b1-2)Man(a1-3)[Fuc(a1-2)[Gal(a1-3)]Gal(b1-4)GlcNAc(b1-2)Man(a1-6)]Man(b1-4)GlcNAc(b1-4)[Fuc(a1-6)]GlcNAc", "summary_of_the_method": "as §1"}, "[28]": {"molecular_target": "Fuc(a1-2)[Gal(a1-3)]Gal(b1-4)GlcNAc(b1-3)GalNAc", "summary_of_the_method": "as §1"}, "[29]": {"molecular_target": "Fuc(a1-2)[Gal(a1-3)]Gal(b1-4)GlcNAc(b1-3)[Fuc(a1-2)[Gal(a1-3)]Gal(b1-4)GlcNAc(b1-6)]GalNAc", "summary_of_the_method": "as §1"}, "[30]": {"molecular_target": "Fuc(a1-2)[Gal(a1-3)]Gal(b1-4)GlcNAc(b1-6)GalNAc", "summary_of_the_method": "as §1"}, "[31]": {"molecular_target": "Fuc(a1-2)[Gal(a1-3)]Gal(b1-4)[Fuc(a1-3)]Glc", "summary_of_the_method": "as §1"}, "[32]": {"molecular_target": "Fuc(a1-2)[Gal(a1-3)]Gal(b1-4)[Fuc(a1-3)]GlcNAc", "summary_of_the_method": "as §1"}, "[33]": {"molecular_target": "Fuc(a1-2)[Gal(a1-3)]Gal(b1-4)[Fuc(a1-3)]GlcNAc(b1-3)GalNAc", "summary_of_the_method": "as §1"}, "[34]": {"molecular_target": "Fuc(a1-2)[Gal(a1-4)]Gal(b1-4)GlcNAc", "summary_of_the_method": "as §1"}, "[35]": {"molecular_target": "Fuc(a1-2)[GalNAc(a1-3)]Gal", "summary_of_the_method": "as §1"}, "[36]": {"molecular_target": "Fuc(a1-2)[GalNAc(a1-3)]Gal(b1-3)GalNAc(a1-3)[Fuc(a1-2)]Gal(b1-4)GlcNAc", "summary_of_the_method": "as §1"}}, "note": "This is one part of the list.", "data": [{"binder": "B1", "values": [{"measurement": "glycan array binding signal (z-score)", "setting": "[1]", "value": 0.273}, {"measurement": "glycan array binding signal (z-score)", "setting": "[2]", "value": -0.192}, {"measurement": "glycan array binding signal (z-score)", "setting": "[3]", "value": -0.292}, {"measurement": "glycan array binding signal (z-score)", "setting": "[4]", "value": -0.155}, {"measurement": "glycan array binding signal (z-score)", "setting": "[5]", "value": 0.188}, {"measurement": "glycan array binding signal (z-score)", "setting": "[6]", "value": -0.081}, {"measurement": "glycan array binding signal (z-score)", "setting": "[7]", "value": -0.276}, {"measurement": "glycan array binding signal (z-score)", "setting": "[8]", "value": -0.197}, {"measurement": "glycan array binding signal (z-score)", "setting": "[9]", "value": -0.062}, {"measurement": "glycan array binding signal (z-score)", "setting": "[10]", "value": -0.325}, {"measurement": "glycan array binding signal (z-score)", "setting": "[11]", "value": -0.312}, {"measurement": "glycan array binding signal (z-score)", "setting": "[12]", "value": -0.3}, {"measurement": "glycan array binding signal (z-score)", "setting": "[13]", "value": -0.331}, {"measurement": "glycan array binding signal (z-score)", "setting": "Fuc(a1-2)Gal6S(b1-4)Glc", "value": -0.232}, {"measurement": "glycan array binding signal (z-score)", "setting": "[14]", "value": -0.27}, {"measurement": "glycan array binding signal (z-score)", "setting": "[15]", "value": -0.301}, {"measurement": "glycan array binding signal (z-score)", "setting": "Fuc(a1-2)[Gal(a1-3)]Gal", "value": -0.221}, {"measurement": "glycan array binding signal (z-score)", "setting": "[16]", "value": -0.278}, {"measurement": "glycan array binding signal (z-score)", "setting": "[17]", "value": 0.126}, {"measurement": "glycan array binding signal (z-score)", "setting": "[18]", "value": -0.296}, {"measurement": "glycan array binding signal (z-score)", "setting": "[19]", "value": -0.296}, {"measurement": "glycan array binding signal (z-score)", "setting": "[20]", "value": -0.193}, {"measurement": "glycan array binding signal (z-score)", "setting": "[21]", "value": -0.151}, {"measurement": "glycan array binding signal (z-score)", "setting": "[22]", "value": 0.161}, {"measurement": "glycan array binding signal (z-score)", "setting": "[23]", "value": -0.108}, {"measurement": "glycan array binding signal (z-score)", "setting": "[24]", "value": -0.336}, {"measurement": "glycan array binding signal (z-score)", "setting": "[25]", "value": -0.497}, {"measurement": "glycan array binding signal (z-score)", "setting": "[26]", "value": -0.293}, {"measurement": "glycan array binding signal (z-score)", "setting": "[27]", "value": 0.035}, {"measurement": "glycan array binding signal (z-score)", "setting": "[28]", "value": -0.236}, {"measurement": "glycan array binding signal (z-score)", "setting": "[29]", "value": -0.235}, {"measurement": "glycan array binding signal (z-score)", "setting": "[30]", "value": -0.195}, {"measurement": "glycan array binding signal (z-score)", "setting": "[31]", "value": -0.258}, {"measurement": "glycan array binding signal (z-score)", "setting": "[32]", "value": -0.196}, {"measurement": "glycan array binding signal (z-score)", "setting": "[33]", "value": -0.123}, {"measurement": "glycan array binding signal (z-score)", "setting": "[34]", "value": 0.114}, {"measurement": "glycan array binding signal (z-score)", "setting": "[35]", "value": -0.342}, {"measurement": "glycan array binding signal (z-score)", "setting": "[36]", "value": -0.044}]}]}
